The labels stand for the following.
B1: LINE1-mini (parent)
chain: GGCAGAGCUCAACACAGCGUGGCAAAGUGGCUGUGGCUAGACUGCC

Read counts are not given, so values of variants with three or more changes are uncertain.

The variants in this series derive from B1. Kind of series: self-cleavage, relative activity (ratio to wild type); higher = more cleavage; in vitro, sequencing; the parent is a self-cleaving ribozyme.
Regarding GGCAGAGCUCAACACAGCGUGGCAAAAUGGCUGUUGAUAGACUGCC, the self-cleavage was 0.13.

On to GGCAGAGCUCAACACAGCGUGGCAAACUGGGUGUGGCAAGACUGCC, for which the self-cleavage is 0.16.

Turning to GGCAGAGCUCAACACAGCGUGGCAAAACGCCUGUGGCUAGACUGCC, the self-cleavage is 0.66.

Turning to GGCAGAGCUCAACACAGCGUGGCAAACUGGCUGUGGCUAUACUGCA, the self-cleavage was 0.05.

In the case of GGCAGAGCUCAACACAGCGUGGCAAAAUGGCUGCGGCUAGACUGCA, the self-cleavage was determined as 0.05.

With GGCAGAGCUCAACACAGCGUGGCAAACUGGCUGUGGCUACAUUGCC, the self-cleavage came out at 0.03.

Take GGCAGAGCUCAACACAGCGUGGCAAUGUGGCUGUGCUUAAACUGCC: the self-cleavage was determined as 0.21.

On to GGCAGAGCUCAACACAGCGUGGCAAAACGGGUGUGGCUAGACUGCC, for which the self-cleavage worked out at 0.04.

With GGCAGAGCUCAACACAGCGUGGCAAAUUGGAUGUCGCUGGACUGCC, the self-cleavage amounted to 0.06.

Regarding GGCAGAGCUCAACACAGCGUGGCAAAUUGGCUGUGGCUCAACUGCC, the self-cleavage was 0.03.

For GGCAGAGCUCAACACAGCGUGGCAAACUGGCUGGGGCUAGACUGCG, the self-cleavage amounted to 0.21.

As to GGCAGAGCUCAACACAGCGUGGCAAAAUGGGUAUGGCUAGACUGCC, the self-cleavage stood at 0.1.

With GGCAGAGCUCAACACAGCGUGGCAAACUGGCAGUCGCUAGACUGCC, the self-cleavage was found to be 0.05.

Consider GGCAGAGCUCAACACAGCGUGGCAAUGUGGCCGUGGCUAGAGUGCC, for which the self-cleavage was found to be 0.09.

For GGCAGAGCUCAACACAGCGUGGCAAAAUGGCUGUUGCUAGUCUGCC, the self-cleavage worked out at 0.04.

As to GGCAGAGCUCAACACAGCGUGGCAAAAUGUCUGCGGCUAGACUGCC, the self-cleavage stood at 0.16.

Regarding GGCAGAGCUCAACACAGCGUGGCAAUGUGGCUGUGGCUAGACAGUC, the self-cleavage was 0.09.

Regarding GGCAGAGCUCAACACAGCGUGGCAAACCGGCUGUGGCUAGACUACC, the self-cleavage amounted to 0.35.

On to GGCAGAGCUCAACACAGCGUGGCAAAAUGGCUGUGGCUAGACUAAC, for which the self-cleavage amounted to 0.31.

With GGCAGAGCUCAACACAGCGUGGCAAAUUGGAUGUGGCUAGAAUGCC, the self-cleavage turned out to be 0.03.

As to GGCAGAGCUCAACACAGCGUGGCAAACUCGCUGUGGCUAGCCUACC, the self-cleavage worked out at 0.07.

Take GGCAGAGCUCAACACAGCGUGGCAAACUGGCUUUGGCUAAACUGCA: the self-cleavage was 0.05.

Take GGCAGAGCUCAACACAGCGUGGCAAACUGGCUGUGGAUGGACUGCC: the self-cleavage is 0.04.

GGCAGAGCUCAACACAGCGUGGCAAACUGGCUGUGCUUUGACUGCC: the self-cleavage is 0.01.

In the case of GGCAGAGCUCAACACAGCGUGGCAAUGUGGCUGUGGCUAGACGACC, the self-cleavage is 0.22.

Consider GGCAGAGCUCAACACAGCGUGGCAAACUGGCUAUCGCUAGAAUGCC, for which the self-cleavage came out at 0.01.

Take GGCAGAGCUCAACACAGCGUGGCAAUGGGGCCGUGGCUAGACUGCC: the self-cleavage came to 0.15.

As to GGCAGAGCUCAACACAGCGUGGCAAAUUGGCUGUGGCUAGCCUGGC, the self-cleavage came out at 0.05.

GGCAGAGCUCAACACAGCGUGGCAAACUGGCUAUGGCUAGACUUCC: the self-cleavage was determined as 0.08.

GGCAGAGCUCAACACAGCGUGGCAAUGUGGCUGUGACUAGACUGCU: the self-cleavage worked out at 0.15.

With GGCAGAGCUCAACACAGCGUGGCAAUGUGGCUGUAUCUAGAUUGCC, the self-cleavage worked out at 0.01.

Regarding GGCAGAGCUCAACACAGCGUGGCAAAAUGGGUGUGGCUAGACUCCC, the self-cleavage turned out to be 0.07.

In the case of GGCAGAGCUCAACACAGCGUGGCAAUGAGGCUGUGGGUAGAUUGCC, the self-cleavage was found to be 0.01.

For the variant GGCAGAGCUCAACACAGCGUGGCAAACUGGCUGUGUCUAGACGGCC, the self-cleavage worked out at 0.04.

Take GGCAGAGCUCAACACAGCGUGGCAAACUAGCUGUGGCUAGAUUGCC: the self-cleavage worked out at 0.

Turning to GGCAGAGCUCAACACAGCGUGGCAAUGCGGCUGAGGCUAGACUGCC, the self-cleavage came out at 0.22.

As to GGCAGAGCUCAACACAGCGUGGCAAACUGGCUCUGGCUAGACUACC, the self-cleavage came out at 0.15.

Turning to GGCAGAGCUCAACACAGCGUGGCAAAAUGGCUGUGGCGAUACUGCC, the self-cleavage worked out at 0.17.

Consider GGCAGAGCUCAACACAGCGUGGCAAACUGGCCGUUUCUAGACUGCC, for which the self-cleavage was 0.11.

As to GGCAGAGCUCAACACAGCGUGGCAAACUGGAUUUGGCUAGACUGCC, the self-cleavage was 0.03.

For the variant GGCAGAGCUCAACACAGCGUGGCAAACUGGCUGUACCUAGACUGCC, the self-cleavage amounted to 1.08.

As for GGCAGAGCUCAACACAGCGUGGCAAAAUGGCUGUGCCUAGAGUGGC, the self-cleavage came to 0.07.

Consider GGCAGAGCUCAACACAGCGUGGCAAAAUGGCCGUGGCUAGACUGCU, for which the self-cleavage amounted to 0.12.

Regarding GGCAGAGCUCAACACAGCGUGGCAAAAUGGGUGUGGCUACACUGCC, the self-cleavage is 0.05.

For the variant GGCAGAGCUCAACACAGCGUGGCAAACCGGCUGUGGCUAAACUGCC, the self-cleavage came to 0.05.

In the case of GGCAGAGCUCAACACAGCGUGGCAAAAUCGCUGUGGAUAGACUGAC, the self-cleavage was 0.

For GGCAGAGCUCAACACAGCGUGGCAAACUGGCUGUGACUAGAAUGCC, the self-cleavage came out at 0.02.

On to GGCAGAGCUCAACACAGCGUGGCAAACUGGCUGCGGAUAGACUGCC, for which the self-cleavage is 0.14.

Consider GGCAGAGCUCAACACAGCGUGGCAAACUGCCUGUGGCUAUACUGCC, for which the self-cleavage turned out to be 0.05.

Consider GGCAGAGCUCAACACAGCGUGGCAAAACGGCUGUGGCUCGACUGCC, for which the self-cleavage turned out to be 0.04.

In the case of GGCAGAGCUCAACACAGCGUGGCAAAAUAGCUAUGGCUAGACUGCC, the self-cleavage was found to be 0.05.

In the case of GGCAGAGCUCAACACAGCGUGGCAAAAUAGCUCUGGCUAGACUGCC, the self-cleavage worked out at 0.09.

As for GGCAGAGCUCAACACAGCGUGGCAAAAUGGCUACGGCUAGACUGCC, the self-cleavage was 0.05.

As to GGCAGAGCUCAACACAGCGUGGCAAACAGUCUGUGGCUAGACUGCC, the self-cleavage worked out at 1.27.

As for GGCAGAGCUCAACACAGCGUGGCAAUGUGGCUUAGGCUAGACUGCC, the self-cleavage was 0.11.

Regarding GGCAGAGCUCAACACAGCGUGGCAAAAUGGCUGUGGAUAGACUGCG, the self-cleavage came to 0.12.

These data come from the RNAGym collection of RNA variant scans (doi:10.7554/elife.90254).
